“And” between values parts separate entries of the source, which are not always exact repeats. Equal entries are not always repeated. Out of some 420,000 compounds screened, about 50,000 (12%) were called active. Inconclusive means that the source gave no clear call. Such entries were picked first, then a sample of the others. Calls follow the shape of the dose curve; as a rule, active = well fitted inhibition curve with a large enough effect; inconclusive = small, poorly fitted or top-dose-only effect; inactive = flat fitted curve, though single readings scatter. Where the call is inconclusive, the potency comes from a doubtful curve fit.
assay: qHTS for Inhibitors of human tyrosyl-DNA phosphodiesterase 1 (TDP1): qHTS in cells in presence of CPT; settings: chicken DT40 Tdp1-/-;hTDP1 cells + 20 nM CPT, ATP luminescence, 48 h; series mostly up to 46.2 µM; also: nearly all actives have a fitted effect of over 55% in size
In short: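 Chicken DT40 Tdp1-/- cells complemented with human TDP1, 400 cells/well, exposed to compounds plus 20 nM camptothecin for at least 48 h at 37 C; viability read as ATP content by CellTiter-Glo luminescence.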
Potency is read from the fitted curve at half-maximal effect; tags tell the direction and shape of the fitted curve.

SMILES | Potency
COc1cc2nc(N3CCOCC3)nc(NC(C)C)c2cc1OC | inconclusive: 20 µM [inhibitor, single point]
CCCn1c(SCC(=O)Nc2cccc(C(=O)OCC)c2)nnc1-c1ccoc1C | inconclusive: 23.1 µM [inhibitor, single point]
CCC(Sc1nc2ccsc2c(=O)n1-c1ccc(Cl)c(C)c1)C(=O)NCc1ccco1 (stereo unspecified) | inconclusive: 25.9 µM [inhibitor, partial curve, poor fit]
Cc1cccc(OCCn2c(CCCO)nc3ccccc32)c1 | inactive
O=C(/C=C/c1cccc([N+](=O)[O-])c1)c1ccco1 | active: 4.61 µM
CSc1nc2ccccc2c(=O)n1Cc1ccc(F)cc1 | inactive
O=C(CC1(O)C(=O)Nc2ccccc21)c1ccccc1O (stereo unspecified) | inactive
CN(C)C(CNC(=O)c1ccc2ccccc2n1)c1ccccc1 (stereo unspecified) | inconclusive: 18.4 µM [inhibitor, single point]
S=c1[nH]nc(Cn2cnc3ccccc32)n1-c1ccccc1Cl | inactive
Oc1ccc(Br)cc1/C=N/N1CCN(Cc2cccc3ccccc23)CC1 | inconclusive: 29.1 µM [inhibitor, single point]
COCCn1c(SCC(=O)Nc2ccc(F)cc2)nc2ccccc2c1=O | inconclusive: 14.6 µM [inhibitor, single point]
COc1cc(OC)c2ccc(=O)oc2c1C(CC(=O)N1CCCC(C)C1)c1ccc2c(c1)OCO2 (stereo unspecified) | inconclusive: 25.9 µM [inhibitor, single point]
Cc1cccc(-n2c3nc(=O)[nH]c(=O)c-3cc3ccc(Cl)cc32)c1C | inconclusive: 14.6 µM [inhibitor, partial curve]
C=CCN(c1ccccc1OC)S(=O)(=O)c1cccc(C(=O)NC2=NCCS2)c1 | inconclusive: 32.6 µM [inhibitor, single point]
O=C(O)c1ccccc1C(c1ccccc1)c1ccccc1O (stereo unspecified) | inactive
COc1c(C2=CC(=O)N(C)C2=O)c2c(n1C)C(=O)c1ccccc1C2=O | active: 0.517 µM
COc1ccc(-c2coc3cc(O)cc(O)c3c2=O)cc1 | inconclusive: 29.1 µM [inhibitor, single point] and inconclusive: 33.5 µM [inhibitor, single point]
COC(=O)CSc1cnc2ccccc2n1 | inactive
CCCCC(O)(c1ccc(CC)cc1)C(CN1CCOCC1)c1ccccc1 (stereo unspecified) | inconclusive: 23.1 µM [inhibitor, single point]
COc1cc(S(=O)(=O)Nc2ncn[nH]2)ccc1Cl | inactive
CCOC(=O)c1c(C)[nH]c(C)c1C(=O)COC(=O)/C=C/c1cccc(Cl)c1 | inconclusive: 20.6 µM [inhibitor, single point]

— PubChem BioAssay AID686979 (National Center for Advancing Translational Sciences (NCATS), 2013)
